{
  "source": "the supplement of paper PMC9446081",
  "note": "Screen size: about 39,000 compounds; about 220 (0.56%) showed activity. Some of the results follow.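 Further: static incubation at 37 °C against the wild-type strain, values averaged over two biological replicates.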",
  "data": [
    {"system": "Escherichia coli K-12 BW25113", "assay": "relative growth (OD600 normalised to plate interquartile mean) (fraction); higher = less growth inhibition, active = 0.2 or less", "conditions": "50 µM; LB; incubation time: overnight (16-24 h)", "values": [
      {"smiles": "C[C@H](CO)N1C[C@H](C)[C@H](CN(C)S(=O)(=O)c2cn(C)cn2)Oc2c(NC(=O)C3CCOCC3)cccc2C1=O", "relative growth": "inactive: 0.874"},
      {"smiles": "C[C@H]1CN([C@@H](C)CO)C(=O)Cc2cc(NC(=O)CCC(F)(F)F)ccc2O[C@H]1CN(C)Cc1ccc(C(=O)Nc2ccccc2N)cc1", "relative growth": "inactive: 0.991"},
      {"smiles": "C[C@H]1CN([C@@H](C)CO)C(=O)Cc2cc(NC(=O)Cn3cnnn3)ccc2O[C@@H]1CN(C)Cc1ccc(-c2ccccc2)cc1", "relative growth": "inactive: 0.986"},
      {"smiles": "Cc1cc(C(=O)Nc2cccc3c2O[C@@H](CN(C)C(=O)NC2CCCCC2)[C@H](C)CN([C@@H](C)CO)C3=O)n(C)n1", "relative growth": "inactive: 1.01"},
      {"smiles": "COc1cc(OC)nc(N)n1", "relative growth": "inactive: 1"},
      {"smiles": "C[C@@H]1CCCCO[C@@H](CN(C)CC2CCCCC2)[C@@H](C)CN([C@H](C)CO)C(=O)c2cc(N(C)C)ccc2O1", "relative growth": "inactive: 1"},
      {"smiles": "S=c1[nH]cc(-c2ccccc2)[nH]1", "relative growth": "inactive: 0.927"},
      {"smiles": "C[C@H](CO)N1C[C@H](C)[C@@H](CN(C)S(=O)(=O)c2ccc(Cl)cc2)Oc2ccc(NC(=O)c3ccncc3)cc2CC1=O", "relative growth": "inactive: 0.977"},
      {"smiles": "C[C@H](CO)N1C[C@H](C)[C@H](CN(C)S(=O)(=O)c2ccc(Cl)cc2)Oc2ccc(NC(=O)Cn3cnnn3)cc2CC1=O", "relative growth": "inactive: 1.04"},
      {"smiles": "Cc1ccc(S(=O)(=O)N(C)C[C@H]2Oc3ccc(NS(=O)(=O)c4ccc(F)cc4)cc3CC(=O)N([C@@H](C)CO)C[C@@H]2C)cc1", "relative growth": "inactive: 1.02"},
      {"smiles": "C[C@H](CO)N1C[C@H](C)[C@@H](CN(C)C(=O)Nc2ccc(C(F)(F)F)cc2)Oc2ccc(NC(=O)Nc3ccc(C(F)(F)F)cc3)cc2C1=O", "relative growth": "inactive: 1"},
      {"smiles": "Cc1noc(C)c1S(=O)(=O)Nc1ccc2c(c1)C(=O)N([C@@H](C)CO)C[C@@H](C)[C@H](CN(C)C(=O)Nc1ccccc1)O2", "relative growth": "inactive: 0.997"},
      {"smiles": "COc1cccc(S(=O)(=O)N2C[C@H](O)COC[C@H]3O[C@H](CC(=O)N4CCOCC4)CC[C@@H]32)c1", "relative growth": "inactive: 0.99"},
      {"smiles": "COc1ccc(S(=O)(=O)N(C)C[C@@H]2Oc3ccc(NC(=O)Nc4cc(Cl)cc(Cl)c4)cc3CC(=O)N([C@@H](C)CO)C[C@@H]2C)cc1Cl", "relative growth": "inactive: 1.02"},
      {"smiles": "CO[C@@H]1CN(C)C(=O)c2cc(NS(=O)(=O)CC(F)(F)F)ccc2OC[C@@H](C)N(C(=O)c2ccc3c(c2)OCO3)C[C@@H]1C", "relative growth": "inactive: 0.968"},
      {"smiles": "COc1ccc(C#Cc2ccc3c(c2)O[C@H](CN(C)C(C)=O)[C@@H](C)CN([C@H](C)CO)S3(=O)=O)cc1", "relative growth": "inactive: 1"},
      {"smiles": "Clc1ccc(-c2cc[nH]n2)cc1", "relative growth": "inactive: 0.912"},
      {"smiles": "COc1cccc(C#Cc2ccc3c(c2)O[C@H](CN(C)C(C)=O)[C@H](C)CN([C@@H](C)CO)S3(=O)=O)c1", "relative growth": "inactive: 1.01"},
      {"smiles": "COc1ccc(C#Cc2cnc3c(c2)C(=O)N([C@H](C)CO)C[C@H](C)[C@H](CN(C)S(=O)(=O)c2cccc(F)c2)O3)cc1OC", "relative growth": "inactive: 1.03"},
      {"smiles": "C[C@@H]1CCCCO[C@H](CN(C)CC2CCCCC2)[C@@H](C)CN([C@H](C)CO)C(=O)c2cc(NC(=O)Nc3ccc4c(c3)OCO4)ccc2O1", "relative growth": "inactive: 0.996"},
      {"smiles": "O=C(C[C@@H]1CC[C@@H]2[C@H](COC[C@H](O)CN2S(=O)(=O)c2ccc(Cl)cc2)O1)N[C@H]1CCN(Cc2ccccc2)C1", "relative growth": "inactive: 0.987"},
      {"smiles": "C[C@H](CO)N1C[C@H](C)[C@@H](CN(C)Cc2ccc(-c3ccccc3)cc2)Oc2ccc(NC(=O)Nc3ccc4c(c3)OCO4)cc2C1=O", "relative growth": "inactive: 1.02"},
      {"smiles": "Cc1ccc(S(=O)(=O)N(C)C[C@@H]2Oc3ncc(-c4ccncc4)cc3C(=O)N([C@@H](C)CO)C[C@@H]2C)cc1", "relative growth": "inactive: 0.912"},
      {"smiles": "Cc1noc(C)c1NC(=O)Nc1ccc2c(c1)C(=O)N([C@@H](C)CO)C[C@@H](C)[C@H](CN(C)CC1CCCCC1)OCCCC[C@H](C)O2", "relative growth": "inactive: 1.02"},
      {"smiles": "C[C@@H]1CN([C@H](C)CO)C(=O)Cc2cc(NC(=O)CCCCCC(=O)Nc3ccccc3N)ccc2O[C@@H]1CN(C)Cc1ccc(C(F)(F)F)cc1", "relative growth": "inactive: 1.06"},
      {"smiles": "C[C@H]1CCCCO[C@H](CN(C)C(=O)Cc2ccccc2)[C@@H](C)CN([C@@H](C)CO)C(=O)c2cc(NS(=O)(=O)c3ccc(Cl)cc3)ccc2O1", "relative growth": "inactive: 1.02"},
      {"smiles": "COc1ccc(C(=O)Nc2cccc(CN3C(=O)[C@@]4(O[C@@H](CC(=O)N5Cc6ccccc6C[C@H]5CO)[C@H]([Si](C)(C)c5ccc(OC)cc5)[C@H]4C)c4ccccc43)c2)cc1", "relative growth": "inactive: 1.02"},
      {"smiles": "C[C@H]1CN([C@@H](C)CO)C(=O)c2cc(NC(=O)NC3CCCCC3)ccc2O[C@@H]1CN(C)C(=O)Nc1ccc(C(F)(F)F)cc1", "relative growth": "inactive: 1.02"},
      {"smiles": "C[C@@H]1CCCCO[C@H](CN(C)C(=O)CCC(F)(F)F)[C@H](C)CN([C@@H](C)CO)C(=O)c2cc(NS(=O)(=O)c3ccc(Cl)cc3)ccc2O1", "relative growth": "inactive: 0.99"},
      {"smiles": "C=CCN1C(=O)[C@]2(O[C@H](CCO)[C@@H]([Si](C)(C)c3ccc(OC)cc3)[C@@H]2C)c2cc(N(C=O)c3ccccc3)ccc21", "relative growth": "inactive: 1.03"},
      {"smiles": "C[C@@H]1CN([C@@H](C)CO)C(=O)Cc2cc(NC(=O)Nc3ccc4c(c3)OCO4)ccc2O[C@H]1CN(C)Cc1ccc(C(F)(F)F)cc1", "relative growth": "inactive: 1.03"},
      {"smiles": "CS(=O)(=O)Nc1ccc2c(c1)[C@@H]1C[C@H](CC(=O)NCC3CC3)O[C@@H](CO)[C@@H]1O2", "relative growth": "inactive: 0.992"},
      {"smiles": "COCCN1C[C@H]2CN(Cc3nccn3C)C[C@H]2C1=O", "relative growth": "inactive: 0.911"},
      {"smiles": "C[C@@H]1CCCCO[C@@H](CN(C)C(=O)Nc2ccc3c(c2)OCO3)[C@@H](C)CN([C@@H](C)CO)C(=O)c2cc(NC(=O)Nc3ccc4c(c3)OCO4)ccc2O1", "relative growth": "inactive: 1.03"},
      {"smiles": "O=C(N/N=C/[C@@H](O)[C@H](O)[C@H](O)CO)c1ccccn1", "relative growth": "inactive: 0.97"},
      {"smiles": "COCC(=O)Nc1ccc2c(c1)[C@@H]1C[C@H](CC(=O)N3CCOCC3)O[C@H](CO)[C@@H]1O2", "relative growth": "inactive: 1.01"},
      {"smiles": "CN1CCN(C(=O)C[C@H]2C=C[C@H](NC(=O)Cc3ccccn3)[C@H](CO)O2)CC1", "relative growth": "inactive: 1.03"},
      {"smiles": "CC(C)CC#Cc1ccc2c(c1)O[C@H](CN(C)S(=O)(=O)c1cccc(F)c1)[C@H](C)CN([C@H](C)CO)S2(=O)=O", "relative growth": "inactive: 1.04"},
      {"smiles": "C[N+](C)(C)CCCCNC(=O)[C@@H]1C[C@@H]2C(=O)N3CCC[C@H]3C(=O)N2[C@@H]1c1cccc(OCCO)c1", "relative growth": "inactive: 0.988"},
      {"smiles": "NCCNCCNCCNCCN", "relative growth": "inactive: 0.962"},
      {"smiles": "Cc1ccc(S(=O)(=O)Nc2ccc3c(c2)C(=O)N([C@@H](C)CO)C[C@H](C)[C@H](CN(C)C(=O)C2CCCCC2)OCCCC[C@@H](C)O3)cc1", "relative growth": "inactive: 0.94"},
      {"smiles": "O=S(=O)([O-])CCCS(=O)(=O)[O-].[Na+].[Na+]", "relative growth": "inactive: 1.05"},
      {"smiles": "COc1ccc(CN(C)C[C@H]2OCCCC[C@@H](C)Oc3ccc(NC(=O)C4CCCCC4)cc3C(=O)N([C@@H](C)CO)C[C@@H]2C)cc1", "relative growth": "inactive: 0.989"},
      {"smiles": "C[C@@H](Oc1cc(-n2cnc3ccc(CN4CCN(C)CC4)cc32)sc1C(N)=O)c1ccccc1C(F)(F)F", "relative growth": "inactive: 0.979"},
      {"smiles": "O=C(NO)c1cccc(C(=O)N/N=C/[C@H](O)[C@@H](O)[C@H](O)[C@H](O)CO)c1", "relative growth": "inactive: 0.999"},
      {"smiles": "C[C@@H]1CN([C@H](C)CO)S(=O)(=O)c2ccc(C#C[C@@H](C)O)cc2O[C@H]1CN(C)C(=O)c1ccccc1", "relative growth": "inactive: 0.996"},
      {"smiles": "COC(=O)C[C@@H]1CC[C@H]2[C@@H](COC[C@H](O)CN2S(=O)(=O)c2cn(C)cn2)O1", "relative growth": "inactive: 0.998"},
      {"smiles": "C[C@H]1CN([C@@H](C)CO)C(=O)c2cccc(NC(=O)Nc3ccc4c(c3)OCO4)c2O[C@H]1CN(C)S(=O)(=O)c1cn(C)cn1", "relative growth": "inactive: 1.02"},
      {"smiles": "COc1cccc(C#Cc2ccc([C@H]3[C@H]4CN(S(=O)(=O)c5ccccc5C)CC(=O)N4[C@H]3CO)cc2)c1", "relative growth": "inactive: 1.03"},
      {"smiles": "Cc1cc(C)n([C@@H](CC(=O)O)C(=O)O)n1", "relative growth": "inactive: 0.97"},
      {"smiles": "C[C@@H]1CN([C@H](C)CO)C(=O)c2cccc(NC(=O)Nc3ccc(C(F)(F)F)cc3)c2O[C@@H]1CN(C)C(=O)Nc1ccc2c(c1)OCO2", "relative growth": "inactive: 0.922"},
      {"smiles": "COCCOC(=O)N1C(=O)[C@@]2(c3ccccc31)[C@H](C(=O)Nc1nc3ccccc3s1)[C@H]1C(=O)O[C@H](c3ccccc3)[C@H](c3ccccc3)N1[C@@H]2c1ccc(OCCO)cc1", "relative growth": "inactive: 1.05"},
      {"smiles": "C[C@@H]1CCCCO[C@H](CN(C)C(=O)C2CCCCC2)[C@H](C)CN([C@@H](C)CO)C(=O)c2cc(NC(=O)c3ccncc3)ccc2O1", "relative growth": "inactive: 1.02"},
      {"smiles": "C[C@@H]1CN([C@H](C)CO)S(=O)(=O)c2ccc(C#CC(C)(C)O)cc2O[C@H]1CN(C)Cc1ccc(F)cc1", "relative growth": "inactive: 0.997"},
      {"smiles": "C[C@@H]1CN([C@H](C)CO)C(=O)Cc2cc(NC(=O)Nc3ccc(C(F)(F)F)cc3)ccc2O[C@H]1CN(C)C(=O)Nc1ccc(C(F)(F)F)cc1", "relative growth": "inactive: 0.994"},
      {"smiles": "CC(C)CC#Cc1ccc2c(c1)O[C@H](CN(C)S(=O)(=O)c1cccc(F)c1)[C@@H](C)CN([C@@H](C)CO)S2(=O)=O", "relative growth": "inactive: 1.04"},
      {"smiles": "C=CCOC(=O)[C@H]1[C@@H]2C(=O)O[C@@H](c3ccccc3)[C@@H](c3ccccc3)N2[C@@H](c2ccc(OCCOC(=O)[C@@H]3C[C@@H]4C(=O)N[C@@H](CCCC[N+](C)(C)C)C(=O)N4[C@@H]3c3cccc(OCCO)c3)cc2)[C@]12C(=O)Nc1ccc(I)cc12", "relative growth": "inactive: 1.03"},
      {"smiles": "C[C@@H]1CCCCO[C@@H](CN(C)C(=O)c2ccncc2)[C@@H](C)CN([C@H](C)CO)C(=O)c2cc(NS(=O)(=O)c3cn(C)cn3)ccc2O1", "relative growth": "inactive: 0.985"}
    ]}
  ]
}
